Like-named read-outs stand apart in the source and are kept apart here. No constants are given. Whether binding was seen depends on the method and setting. Binding seen in cells or lysates may run through a third protein. Some results given as binding are weak or reduced against the parent protein; the word gives no strength. For some assays here: Tags and fused reporters may be left off the sequences shown.
Assays:
[1] = molecular target: T1, HCMV immediate-early (IE) 1 protein, wild type (Towne) (human cytomegalovirus (Towne)) (UniProt P03169); experiment: co-IP; HF cells infected with HCMV (Towne) wild-type (MOI 2, 24 h) or with wild-type, IE1(Δ290–320) or IE1(Δ421–475) virus (MOI 2, 12 h); total lysates immunoprecipitated with anti-IE1 antibody (CH443), mouse IgG as control; immunoblot
T1 sequence: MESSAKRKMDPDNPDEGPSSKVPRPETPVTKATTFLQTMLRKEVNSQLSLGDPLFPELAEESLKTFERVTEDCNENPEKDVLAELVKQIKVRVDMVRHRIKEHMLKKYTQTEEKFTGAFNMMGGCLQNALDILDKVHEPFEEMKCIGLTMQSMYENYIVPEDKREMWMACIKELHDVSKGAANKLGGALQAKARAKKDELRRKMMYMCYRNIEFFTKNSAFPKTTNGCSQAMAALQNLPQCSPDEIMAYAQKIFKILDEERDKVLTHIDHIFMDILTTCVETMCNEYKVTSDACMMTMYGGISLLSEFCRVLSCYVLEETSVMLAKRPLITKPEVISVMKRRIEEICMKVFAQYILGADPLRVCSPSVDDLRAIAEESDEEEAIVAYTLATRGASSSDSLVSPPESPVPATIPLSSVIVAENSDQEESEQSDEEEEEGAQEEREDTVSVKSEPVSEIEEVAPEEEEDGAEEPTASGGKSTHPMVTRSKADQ

Amino acid sequences for entries named in this document (tags omitted).
UniProt O15379: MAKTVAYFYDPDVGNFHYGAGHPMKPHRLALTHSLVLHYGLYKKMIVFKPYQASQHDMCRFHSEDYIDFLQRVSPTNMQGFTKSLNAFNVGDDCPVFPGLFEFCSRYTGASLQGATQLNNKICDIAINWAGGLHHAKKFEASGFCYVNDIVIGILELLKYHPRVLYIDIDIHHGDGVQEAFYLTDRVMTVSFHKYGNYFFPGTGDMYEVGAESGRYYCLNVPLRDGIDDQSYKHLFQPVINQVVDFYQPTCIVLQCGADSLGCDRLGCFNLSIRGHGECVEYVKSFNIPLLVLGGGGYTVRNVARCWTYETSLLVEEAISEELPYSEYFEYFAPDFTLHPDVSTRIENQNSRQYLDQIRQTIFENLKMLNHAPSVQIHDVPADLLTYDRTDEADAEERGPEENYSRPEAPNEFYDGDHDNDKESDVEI
UniProt Q13547: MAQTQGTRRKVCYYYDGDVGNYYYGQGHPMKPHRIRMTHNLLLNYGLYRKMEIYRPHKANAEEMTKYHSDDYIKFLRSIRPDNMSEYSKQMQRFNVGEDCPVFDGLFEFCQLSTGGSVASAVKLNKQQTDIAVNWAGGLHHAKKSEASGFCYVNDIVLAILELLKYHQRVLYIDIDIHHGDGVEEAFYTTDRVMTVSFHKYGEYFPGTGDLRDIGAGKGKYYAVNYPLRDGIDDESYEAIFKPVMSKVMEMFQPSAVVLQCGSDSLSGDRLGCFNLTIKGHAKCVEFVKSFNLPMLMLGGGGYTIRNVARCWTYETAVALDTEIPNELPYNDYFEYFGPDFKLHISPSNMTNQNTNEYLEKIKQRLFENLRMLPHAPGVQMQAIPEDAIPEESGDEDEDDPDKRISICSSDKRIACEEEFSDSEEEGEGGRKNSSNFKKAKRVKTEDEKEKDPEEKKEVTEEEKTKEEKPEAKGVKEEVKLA
UniProt Q9UBN7: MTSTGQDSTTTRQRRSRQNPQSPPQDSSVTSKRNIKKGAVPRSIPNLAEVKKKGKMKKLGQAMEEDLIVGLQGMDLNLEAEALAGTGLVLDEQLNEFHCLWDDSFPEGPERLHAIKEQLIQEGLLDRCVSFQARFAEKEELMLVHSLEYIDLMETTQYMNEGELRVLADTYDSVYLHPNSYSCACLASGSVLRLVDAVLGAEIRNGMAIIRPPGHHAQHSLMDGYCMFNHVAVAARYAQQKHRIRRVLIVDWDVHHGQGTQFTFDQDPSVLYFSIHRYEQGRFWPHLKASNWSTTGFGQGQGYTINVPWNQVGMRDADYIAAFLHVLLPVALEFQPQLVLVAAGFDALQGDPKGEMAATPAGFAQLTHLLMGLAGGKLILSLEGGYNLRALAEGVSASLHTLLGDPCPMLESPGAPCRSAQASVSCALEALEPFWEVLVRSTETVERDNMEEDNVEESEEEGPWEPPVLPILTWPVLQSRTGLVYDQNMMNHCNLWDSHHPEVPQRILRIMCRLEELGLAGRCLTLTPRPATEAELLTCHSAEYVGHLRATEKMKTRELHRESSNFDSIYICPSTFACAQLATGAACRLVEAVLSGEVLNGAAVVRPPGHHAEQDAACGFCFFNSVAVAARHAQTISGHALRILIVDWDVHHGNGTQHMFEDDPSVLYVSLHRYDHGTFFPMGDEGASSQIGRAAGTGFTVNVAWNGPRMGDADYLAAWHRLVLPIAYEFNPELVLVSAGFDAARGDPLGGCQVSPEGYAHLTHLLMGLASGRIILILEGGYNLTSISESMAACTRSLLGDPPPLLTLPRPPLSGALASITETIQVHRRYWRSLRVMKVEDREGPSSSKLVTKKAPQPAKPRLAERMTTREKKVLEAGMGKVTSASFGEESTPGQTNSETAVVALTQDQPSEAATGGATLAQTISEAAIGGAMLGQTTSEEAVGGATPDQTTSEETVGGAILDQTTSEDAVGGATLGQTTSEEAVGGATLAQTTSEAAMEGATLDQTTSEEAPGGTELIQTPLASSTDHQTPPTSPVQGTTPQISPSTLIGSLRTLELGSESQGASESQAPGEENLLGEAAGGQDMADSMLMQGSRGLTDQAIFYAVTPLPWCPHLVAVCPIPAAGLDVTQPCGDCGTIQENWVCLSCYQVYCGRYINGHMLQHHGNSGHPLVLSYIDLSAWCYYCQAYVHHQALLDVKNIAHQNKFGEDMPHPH
UniProt Q92769: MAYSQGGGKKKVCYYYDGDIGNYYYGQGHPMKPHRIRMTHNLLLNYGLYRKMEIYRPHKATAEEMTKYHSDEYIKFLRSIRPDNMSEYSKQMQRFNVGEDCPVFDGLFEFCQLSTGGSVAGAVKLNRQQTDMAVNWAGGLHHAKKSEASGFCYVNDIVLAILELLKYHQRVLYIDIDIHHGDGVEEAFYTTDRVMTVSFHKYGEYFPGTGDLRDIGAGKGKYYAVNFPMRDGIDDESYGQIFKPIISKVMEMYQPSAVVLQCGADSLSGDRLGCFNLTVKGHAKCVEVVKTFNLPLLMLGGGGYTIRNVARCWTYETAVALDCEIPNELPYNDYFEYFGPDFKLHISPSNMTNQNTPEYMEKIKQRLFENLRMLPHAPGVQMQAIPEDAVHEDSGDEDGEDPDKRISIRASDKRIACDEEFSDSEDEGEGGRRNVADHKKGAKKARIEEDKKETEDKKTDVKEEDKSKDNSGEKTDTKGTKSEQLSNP
UniProt P29590: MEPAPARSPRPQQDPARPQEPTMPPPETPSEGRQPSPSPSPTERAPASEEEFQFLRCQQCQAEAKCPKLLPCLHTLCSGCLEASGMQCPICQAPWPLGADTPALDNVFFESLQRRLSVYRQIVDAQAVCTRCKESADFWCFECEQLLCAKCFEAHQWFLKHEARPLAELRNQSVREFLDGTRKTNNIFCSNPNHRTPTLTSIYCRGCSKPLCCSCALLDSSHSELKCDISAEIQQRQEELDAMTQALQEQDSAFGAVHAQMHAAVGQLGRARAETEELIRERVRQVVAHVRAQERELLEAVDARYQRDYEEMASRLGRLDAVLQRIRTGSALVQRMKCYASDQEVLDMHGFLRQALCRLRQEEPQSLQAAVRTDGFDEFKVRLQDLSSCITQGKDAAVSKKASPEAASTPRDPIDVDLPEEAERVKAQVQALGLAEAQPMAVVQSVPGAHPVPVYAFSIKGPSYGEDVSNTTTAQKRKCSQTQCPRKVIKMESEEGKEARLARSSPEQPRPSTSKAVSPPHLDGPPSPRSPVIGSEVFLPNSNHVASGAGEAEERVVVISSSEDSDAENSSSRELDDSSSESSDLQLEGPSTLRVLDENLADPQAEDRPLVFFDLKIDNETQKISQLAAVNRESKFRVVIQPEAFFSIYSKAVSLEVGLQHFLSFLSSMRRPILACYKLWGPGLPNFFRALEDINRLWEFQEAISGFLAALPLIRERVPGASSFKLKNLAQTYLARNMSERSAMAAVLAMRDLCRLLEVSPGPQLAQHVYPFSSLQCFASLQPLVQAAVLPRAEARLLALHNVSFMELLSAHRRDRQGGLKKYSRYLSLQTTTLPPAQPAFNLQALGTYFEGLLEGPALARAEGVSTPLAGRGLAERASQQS
UniProt P52630: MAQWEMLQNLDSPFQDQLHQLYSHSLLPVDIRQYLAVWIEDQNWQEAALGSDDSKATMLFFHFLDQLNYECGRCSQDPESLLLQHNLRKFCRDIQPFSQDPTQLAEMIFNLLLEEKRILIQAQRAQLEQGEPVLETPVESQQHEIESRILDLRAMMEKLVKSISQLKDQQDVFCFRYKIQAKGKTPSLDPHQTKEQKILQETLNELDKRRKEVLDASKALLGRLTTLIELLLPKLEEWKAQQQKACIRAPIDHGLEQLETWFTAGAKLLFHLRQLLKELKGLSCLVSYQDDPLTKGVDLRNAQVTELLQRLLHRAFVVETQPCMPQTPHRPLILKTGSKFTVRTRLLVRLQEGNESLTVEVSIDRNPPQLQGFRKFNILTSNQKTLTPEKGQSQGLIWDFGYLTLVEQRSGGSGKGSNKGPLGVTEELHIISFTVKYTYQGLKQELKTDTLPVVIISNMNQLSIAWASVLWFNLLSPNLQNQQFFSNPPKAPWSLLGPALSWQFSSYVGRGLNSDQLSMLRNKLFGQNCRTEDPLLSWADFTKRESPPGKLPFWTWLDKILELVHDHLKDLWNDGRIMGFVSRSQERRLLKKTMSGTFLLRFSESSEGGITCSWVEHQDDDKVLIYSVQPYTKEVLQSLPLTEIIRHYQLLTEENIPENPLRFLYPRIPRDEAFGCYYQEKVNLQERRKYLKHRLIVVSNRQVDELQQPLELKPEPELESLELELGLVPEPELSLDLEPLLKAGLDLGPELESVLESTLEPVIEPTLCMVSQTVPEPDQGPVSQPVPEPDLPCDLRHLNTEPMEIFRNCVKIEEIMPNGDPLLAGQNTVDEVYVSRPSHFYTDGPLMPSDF
UniProt P42224: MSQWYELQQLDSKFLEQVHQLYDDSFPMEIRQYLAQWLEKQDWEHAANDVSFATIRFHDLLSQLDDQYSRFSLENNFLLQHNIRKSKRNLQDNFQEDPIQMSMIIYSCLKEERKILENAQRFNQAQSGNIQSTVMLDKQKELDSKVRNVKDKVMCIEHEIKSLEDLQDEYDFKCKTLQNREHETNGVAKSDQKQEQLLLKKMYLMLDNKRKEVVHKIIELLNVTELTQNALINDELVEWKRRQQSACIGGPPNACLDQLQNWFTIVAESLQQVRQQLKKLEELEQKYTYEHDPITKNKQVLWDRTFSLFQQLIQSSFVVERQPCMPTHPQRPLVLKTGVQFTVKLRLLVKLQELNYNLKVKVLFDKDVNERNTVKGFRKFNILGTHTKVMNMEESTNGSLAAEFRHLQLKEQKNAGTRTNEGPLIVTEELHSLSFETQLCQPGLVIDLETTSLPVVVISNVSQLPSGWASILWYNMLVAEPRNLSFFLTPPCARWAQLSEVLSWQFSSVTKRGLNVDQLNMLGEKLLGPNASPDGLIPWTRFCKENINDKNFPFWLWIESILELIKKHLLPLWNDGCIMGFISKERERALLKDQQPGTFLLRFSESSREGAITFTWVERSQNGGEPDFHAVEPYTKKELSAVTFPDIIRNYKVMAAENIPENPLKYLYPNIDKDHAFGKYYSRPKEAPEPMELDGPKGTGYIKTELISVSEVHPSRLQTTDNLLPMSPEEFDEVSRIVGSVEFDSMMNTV

myc-HDAC3 [2] = molecular target: myc-HDAC3 (UniProt O15379); experiment: co-IP; 293T cells cotransfected with HA-IE1 (wild type or mutant) and myc-tagged partner; at 48 h whole cell lysates immunoprecipitated with anti-Myc antibody and immunoblotted with anti-HA antibody
myc-HDAC1 [3] = molecular target: myc-HDAC1 (UniProt Q13547); experiment: as above
myc-HDAC6 [4] = molecular target: myc-HDAC6 (UniProt Q9UBN7); experiment: as above
myc-HDAC2 [5] = molecular target: myc-HDAC2 (UniProt Q92769); experiment: as above
[6] = molecular target: Promyelocytic leukemia protein (PML) (human (endogenous in HF)) (UniProt P29590); experiment: co-IP; uninfected (mock-infected) HF cells; total lysates immunoprecipitated with anti-PML antibody (PG-M3); immunoblot
[7] = molecular target: Promyelocytic leukemia protein (PML) (human (endogenous in HF)) (UniProt P29590); experiment: co-IP; HF cells infected with UV-HCMV (MOI 3, 8 h) or treated with IFNβ (1 x 10^3 units/ml, 8 h); total lysates, also treated with DNase and RNase; immunoprecipitated with anti-PML antibody (PG-M3), mouse IgG as control; immunoblot
myc-STAT2 [8] = molecular target: myc-STAT2 (UniProt P52630); experiment: co-IP; 293T cells cotransfected with HA-IE1 (wild type or mutant) and myc-tagged partner; at 48 h whole cell lysates immunoprecipitated with anti-Myc antibody and immunoblotted with anti-HA antibody
[9] = molecular target: IE1(Δ290–320), expressed from mutant HCMV (Towne) (human cytomegalovirus (Towne)) (UniProt P03169); experiment: co-IP; HF cells infected with HCMV (Towne) wild-type (MOI 2, 24 h) or with wild-type, IE1(Δ290–320) or IE1(Δ421–475) virus (MOI 2, 12 h); total lysates immunoprecipitated with anti-IE1 antibody (CH443), mouse IgG as control; immunoblot
[10] = molecular target: IE1(Δ421–475), expressed from mutant HCMV (Towne) (human cytomegalovirus (Towne)) (UniProt P03169); experiment: as above
myc-STAT2 [11] = molecular target: myc-STAT2 (UniProt P52630); experiment: co-IP; 293T cells cotransfected with HA-IE1 (wild type or mutant) and myc-tagged partner; at 48 h whole cell lysates immunoprecipitated with anti-Myc antibody and immunoblotted with anti-HA antibody; remark: listed apart in the source
myc-HDAC3 [12] = molecular target: myc-HDAC3 (UniProt O15379); experiment: as above; remark: listed apart in the source
myc-HDAC1 [13] = molecular target: myc-HDAC1 (UniProt Q13547); experiment: as above; remark: listed apart in the source
myc-HDAC6 [14] = molecular target: myc-HDAC6 (UniProt Q9UBN7); experiment: as above; remark: listed apart in the source
myc-HDAC2 [15] = molecular target: myc-HDAC2 (UniProt Q92769); experiment: as above; remark: listed apart in the source

“Promyelocytic leukemia protein (PML) (from UniProt P29590 1-882)” was tested, and the binding [1] was “binds”.

“HA-IE1(Δ290–320) (from UniProt P03169 1-491)” was tested, and the binding (myc-HDAC3 [2]) was “binds”, the binding (myc-HDAC1 [3]) was “binds” and the binding (myc-HDAC6 [4]) was “binds”. The binding (myc-HDAC2 [5]) was “binds”.

For STAT1 (from UniProt P42224 1-750), the binding [6] was “no binding (condition: uninfected cells)”, the binding [7] was “binds” and the binding [1] was “binds”.

With “HA-IE1(L174P) (from UniProt P03169 1-491)” the binding (myc-STAT2 [8]) was “binds”.

With “HDAC2 (from UniProt Q92769 1-488) (enzyme)” the binding [6] was “no binding (condition: uninfected cells)”, the binding [7] was “binds” and the binding [9] was “binds”. For the same molecule, the binding [1] was “binds” and the binding [10] was “binds”.

“HA-IE1(Δ290–320/Δ421–475) (from UniProt P03169 1-491)” was tested, and the binding (myc-HDAC3 [2]) was “binds”, the binding (myc-HDAC1 [3]) was “binds” and the binding (myc-HDAC6 [4]) was “binds”. For the same molecule, the binding (myc-HDAC2 [5]) was “binds”.

In the case of “HDAC1 (from UniProt Q13547 1-482) (enzyme)”, the binding [6] is reported as “no binding (condition: uninfected cells)”, the binding [7] is reported as “binds” and the binding [9] is reported as “binds”. For the same molecule, the binding [1] was “binds” and the binding [10] was “binds”.

For STAT2 (from UniProt P52630 1-851), the binding [6] was “no binding (condition: uninfected cells)”, the binding [7] was “binds” and the binding [9] was “binds”. For the same molecule, the binding [1] was “binds” and the binding [10] was “no binding”.

B1: HA-IE1 (wild type) (protein, UniProt P03169 1-491)
chain: T1 sequence
With B1 the binding (myc-STAT2 [11]) was “binds”, the binding (myc-HDAC3 [12]) was “binds” and the binding (myc-HDAC1 [13]) was “binds”. For the same molecule, the binding (myc-HDAC6 [14]) was “binds” and the binding (myc-HDAC2 [15]) was “binds”.

B2: IFN regulatory factor 9 (IRF9) (protein, UniProt Q00978 1-393)
chain: MASGRARCTRKLRNWVVEQVESGQFPGVCWDDTAKTMFRIPWKHAGKQDFREDQDAAFFKAWAIFKGKYKEGDTGGPAVWKTRLRCALNKSSEFKEVPERGRMDVAEPYKVYQLLPPGIVSGQPGTQKVPSKRQHSSVSSERKEEEDAMQNCTLSPSVLQDSLNNEEEGASGGAVHSDIGSSSSSSSPEPQEVTDTTEAPFQGDQRSLEFLLPPEPDYSLLLTFIYNGRVVGEAQVQSLDCRLVAEPSGSESSMEQVLFPKPGPLEPTQRLLSQLERGILVASNPRGLFVQRLCPIPISWNAPQAPPGPGPHLLPSNECVELFRTAYFCRDLVRYFQGLGPPPKFQVTLNFWEESHGSSHTPQNLITVKMEQAFARYLLEQTPEQQAAILSLV
With B2 the binding [7] was “no binding”.

B3: ribonucleotide reductase R1 (enzyme, UniProt P23921 1-792)
chain: MHVIKRDGRQERVMFDKITSRIQKLCYGLNMDFVDPAQITMKVIQGLYSGVTTVELDTLAAETAATLTTKHPDYAILAARIAVSNLHKETKKVFSDVMEDLYNYINPHNGKHSPMVAKSTLDIVLANKDRLNSAIIYDRDFSYNYFGFKTLERSYLLKINGKVAERPQHMLMRVSVGIHKEDIDAAIETYNLLSERWFTHASPTLFNAGTNRPQLSSCFLLSMKDDSIEGIYDTLKQCALISKSAGGIGVAVSCIRATGSYIAGTNGNSNGLVPMLRVYNNTARYVDQGGNKRPGAFAIYLEPWHLDIFEFLDLKKNTGKEEQRARDLFFALWIPDLFMKRVETNQDWSLMCPNECPGLDEVWGEEFEKLYASYEKQGRVRKVVKAQQLWYAIIESQTETGTPYMLYKDSCNRKSNQQNLGTIKCSNLCTEIVEYTSKDEVAVCNLASLALNMYVTSEHTYDFKKLAEVTKVVVRNLNKIIDINYYPVPEACLSNKRHRPIGIGVQGLADAFILMRYPFESAEAQLLNKQIFETIYYGALEASCDLAKEQGPYETYEGSPVSKGILQYDMWNVTPTDLWDWKVLKEKIAKYGIRNSLLIAPMPTASTAQILGNNESIEPYTSNIYTRRVLSGEFQIVNPHLLKDLTERGLWHEEMKNQIIACNGSIQSIPEIPDDLKQLYKTVWEISQKTVLKMAAERGAFIDQSQSLNIHIAEPNYGKLTSMHFYGWKQGLKTGMYYLRTRPAANPIQFTLNKEKLKDKEKVSKEEEEKERNTAAMVCSLENRDECLMCGS
With B3 the binding [7] was “no binding”.

Source: article PMC4374831
